Drawing on PubChem BioAssay AID488969 (Vanderbilt High Throughput Screening Facility, 2010), this text covers z-score for 71 molecules.

In all, about 110,000 compounds were measured (“z-score”: median about -0.1, highest 2% from about 2 on). This is one part of the list.

The assay has as its target Metabotropic glutamate receptor 8 (Rattus norvegicus) (UniProt P70579). The assay is described as follows: rat mGluR8 modulators via GIRK flux, primary screen, cell-based, thallium flux, HTS (AID 488969). The note with it: HEK293 rat mGluR8, GIRK (G protein-gated inwardly rectifying potassium channel) thallium flux, FluoZin2; at 10 µM; stronger effect = higher value; submaximal glutamate (EC20) added with thallium.
Chain of UniProt P70579 (P70579 whole entry, looked up): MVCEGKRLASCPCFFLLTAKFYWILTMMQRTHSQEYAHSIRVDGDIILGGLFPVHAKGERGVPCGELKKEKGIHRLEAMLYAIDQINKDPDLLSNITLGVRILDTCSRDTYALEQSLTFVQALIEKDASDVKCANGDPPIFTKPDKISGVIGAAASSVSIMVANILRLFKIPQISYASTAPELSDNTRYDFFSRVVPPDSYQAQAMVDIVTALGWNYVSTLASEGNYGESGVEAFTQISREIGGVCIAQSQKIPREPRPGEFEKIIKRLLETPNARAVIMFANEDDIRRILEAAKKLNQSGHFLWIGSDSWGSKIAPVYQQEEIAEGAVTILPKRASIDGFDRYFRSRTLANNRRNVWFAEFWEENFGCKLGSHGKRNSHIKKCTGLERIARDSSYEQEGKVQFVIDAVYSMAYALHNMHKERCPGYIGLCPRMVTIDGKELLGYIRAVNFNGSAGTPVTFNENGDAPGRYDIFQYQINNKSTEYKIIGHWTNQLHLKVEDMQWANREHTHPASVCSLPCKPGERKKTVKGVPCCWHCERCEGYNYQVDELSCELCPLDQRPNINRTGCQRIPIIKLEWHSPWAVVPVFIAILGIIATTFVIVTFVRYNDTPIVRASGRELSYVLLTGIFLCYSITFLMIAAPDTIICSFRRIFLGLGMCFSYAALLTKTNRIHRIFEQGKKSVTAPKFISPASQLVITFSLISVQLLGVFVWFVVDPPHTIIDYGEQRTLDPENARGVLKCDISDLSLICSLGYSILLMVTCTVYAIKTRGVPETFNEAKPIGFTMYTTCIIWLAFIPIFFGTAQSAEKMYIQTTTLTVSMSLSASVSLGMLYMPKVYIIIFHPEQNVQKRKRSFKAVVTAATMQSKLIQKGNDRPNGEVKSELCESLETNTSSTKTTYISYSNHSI
The molecule `O=C(C1CC1)N1CCc2cc(Br)cc(S(=O)(=O)N3CCOCC3)c21` showed a z-score of 0.67.
`Cc1nnc(NC(=O)CSc2nnc(CNC(=O)c3ccccc3)n2-c2ccccc2)s1` returned a z-score of -0.585.
Turning to `CC1C(=O)CCN(C(C)(C)C)C1C` (stereo unspecified), the z-score is 0.2.
To `CCN(CC(=O)Nc1ccc(NC(C)=O)cc1)c1ccc(C(F)(F)F)cn1` belongs -0.202; to `COc1cccc(C(=O)N2CCCC(c3nc(-c4cccs4)no3)C2)c1` (stereo unspecified), -0.0488.
In turn, `O=C(c1ccccc1)c1ccc2nc(-c3ccc(NC(=O)c4ccccc4Br)cc3)[nH]c2c1` had a z-score of -0.191.
The result for `OCCNc1nc(SCc2ccccc2)nc2sc3c(c12)CCC3` reads 1.36; that for `COc1ccccc1-c1cc(C(F)(F)F)nc(S(C)(=O)=O)n1`, 0.243; that for `O=C(Nc1ccc(Cl)cc1)Nc1ccc(N2CCOCC2)cc1`, -0.0978.
To `CCN1CCN(CC(=O)n2c3c(c4ccccc42)CC(C)CC3)CC1` (stereo unspecified) belongs 0.702.
Regarding `COc1cc(C2C(C(=O)c3ccc(C)o3)=C(O)C(=O)N2Cc2cccnc2)ccc1O` (stereo unspecified), the z-score is -0.0623.
The result for `O=S(=O)(Nc1nc2ccccc2s1)c1ccc(Br)s1` reads -0.0496.
`COc1ccc(-c2[nH]ncc2-c2csc(C)n2)c(O)c1`: the z-score is -0.141.
The result for `COc1cccc(OCCCOc2ccc([N+](=O)[O-])cc2Cl)c1` reads -0.251; that for `COc1cccc(/C=N/NC(=O)C(=O)Nc2ccccc2OC(F)(F)C(F)F)c1O`, -0.301.
The result for `CC(=O)Oc1c2occc2cc2ccc(=O)oc12` reads -0.537; that for `CCCS(=O)(=O)N1CCC(C(=O)NCCCOCC)CC1`, 0.176; that for `Cc1ccc(-c2nnc(CSc3nnc(COc4ccccc4)n3-c3ccc(C)cc3)o2)cc1`, -0.725.
The result for `O=C(c1ccc2c(c1)OCO2)N1CCCC(c2ccccc2)C1` (stereo unspecified) reads 0.197; that for `[O-][n+]1onc2c3ccnnc3ccc21`, 0.333.
With `CN(/C(=N/S(=O)(=O)c1cccs1)c1ccccc1)c1ccccc1`, the z-score was -0.367.
The result for `Cc1nn(-c2ccccc2)c(C)c1C(=O)OCC(=O)NC(=O)NC1CCCC1` reads -0.63.
To `CC1CCN(S(=O)(=O)c2ccc(NC(=O)Cc3ccccc3)cc2)CC1` belongs -0.0151; to `O=C1c2cccc3cccc(c23)N1Cc1ccc(F)cc1`, -0.356.
The result for `Cc1cc(NC(=O)c2nn(C)c(C)c2[N+](=O)[O-])no1` reads -0.236.
Turning to `Cc1ccc(-c2nn(Cc3ccccc3)cc2/C=C/C(=O)O)cc1C`, the z-score is -0.207.
The molecule `CCC(=O)Nc1nonc1-c1nc2ccccc2n1Cc1ccccc1` had a z-score of -0.0236.
The result for `COc1cc(NC(=O)C(F)(F)F)cc(OC)c1` reads 0.0614; that for `Cc1occc1C(=O)NCc1ccccc1`, 0.0313; that for `CCOC(=O)CSc1nc2cc(C(=O)NCc3ccco3)ccc2c(=O)n1C1CCCCC1`, 0.724.
The result for `CCOCCCn1c(=N)c(C(N)=S)cc2c(=O)n3cccc(C)c3nc21` reads 2; that for `CSc1nc2c(c(=O)[nH]1)C(c1cccs1)C1=C(CCCC1=O)N2` (stereo unspecified), -0.461; that for `CCOC(=O)c1cc(C(C)(C)C)oc1CNC(=O)c1c(C)oc2c1CCCC2`, -0.0858.
On to `CCCS(=O)(=O)N1CCc2cc(OC)c(OC)cc2C1`, for which the z-score stood at 0.121.
To `CS(=O)(=O)c1nc(-c2ccc(Br)cc2)cc(-c2ccccc2)c1C#N` belongs -0.135.
The result for `CCOC(=O)c1cc(CC)sc1NC(=O)C1CC(=O)NN1Cc1ccccc1` (stereo unspecified) reads -0.128; that for `COc1ccc(C(=O)/C=C2\NCC3c4ccccc4CCN3C2=O)cc1` (stereo unspecified), 0.095.
The result for `COc1ccc(N2CCC(CNC(=O)Nc3cccc(OC)c3)C2)cc1` (stereo unspecified) reads -0.265; that for `COc1ccc(C(=O)/C=C/Nc2ccc(NC(C)=O)cc2)cc1OC`, -0.098.
The molecule `Cc1cccc(-c2oc(C)c(C)[n+]2[O-])c1` showed a z-score of -0.028.
Regarding `Cc1cc(C)c(C)c(OCc2nc(-c3cccnc3)no2)c1`, the z-score stood at 0.00652.
The result for `O=C(CCNS(=O)(=O)c1cccs1)N1CCc2ccccc2C1` reads 1.18; that for `N/C(Cc1ccc([N+](=O)[O-])cc1)=N\OC(=O)c1ccccc1Br`, 0.116.
To `CCCC1=NN2C(=N)/C(=C\c3cc(C)n(-c4cc(C)cc(C)c4)c3C)C(=O)N=C2S1` belongs 1.45; to `COc1cccc(-n2c(SCC(=O)OC(C)C)nnc2-c2cccnc2)c1`, -0.453.
As for `Cc1sc(-n2c(C)cc(/C=C3\SC(=S)NC3=O)c2C)c(C#N)c1C`, the z-score was determined as 2.26.
To `COC1=C(Nc2ccc(O)cc2)C(=O)c2ccccc2C1=O` belongs -0.218.
On to `CC(C)C(OC(=O)c1ccco1)C(=O)NC1CCCCC1` (stereo unspecified), for which the z-score is -0.259.
Turning to `CCCCn1nnc(NC(=O)c2sc3cc(Cl)ccc3c2Cl)n1`, the z-score is -0.463.
To `Cc1ccc(N2C(=O)CC(NNC(=O)c3cccc(S(=O)(=O)N4CCCC4)c3)C2=O)cc1` (stereo unspecified) belongs -0.167.
The result for `CC1CCC/C(=N\NC(=O)Nc2ccccc2)C1` (stereo unspecified) reads -0.338.
As to `CCOC(=O)c1ccccc1NC(=O)CSc1nc2c(c(=O)n(C)c(=O)n2C)n1C`, the z-score was -0.0106.
The result for `CCc1nc2c(C#N)c(-c3ccc(Cl)cc3)ccn2n1` reads -0.604; that for `O=C(NCc1ccccn1)C1C2C=CC(C2)C1C(=O)Nc1ccc(F)cc1` (stereo unspecified), 0.216.
The result for `CN1C(=O)C2(N=c3ccccc3=N2)c2ccccc21` reads -0.345.
To `CCOc1ccc(C(CCc2ccccc2)NC(=O)c2ccccc2)cc1OCC` (stereo unspecified) belongs -0.461; to `CCC(Sc1nc(C)cc(=O)[nH]1)C(=O)Nc1ccc(Cl)cn1` (stereo unspecified), -0.264.
`CCCS(=O)(=O)N1CCN(C(=O)c2ccco2)CC1` yielded a z-score of -0.289.
The result for `CCCCC(=O)Nc1cccc(NC(=O)CC)c1` reads 0.0913.
`CCN(CC)S(=O)(=O)c1cccc(C(=O)N2CCCCC2)c1` gave a z-score of -0.135.
The result for `Cc1ccc2c(c1)C(O)(c1c(C)[nH]c3ccccc13)C(=O)N2` (stereo unspecified) reads 1.26.
For `CCc1ccc(N2C(=O)CN(Cc3cc(OC)c(OC)c(OC)c3)C2=S)cc1`, the z-score was -0.483.
To `COC(=O)c1cn(C(=O)OC)c2ccccc12` belongs 0.484; to `CC(CC(=O)Nc1cc([N+](=O)[O-])ccc1Cl)c1ccccc1` (stereo unspecified), 1.42.
The result for `O=c1cc(-c2ccccc2)[nH]c2[nH]n(-c3ccccc3)c(=O)c12` reads -0.88.
The result for `CCOC(=O)c1cnc2ccc(OCC)cc2c1N1CCN(C)CC1` reads -0.217; that for `COc1cccc(C(=O)/C=C/Nc2ccc(S(=O)(=O)Nc3ncccn3)cc2)c1`, 0.149; that for `CC(=O)Nc1nc2n(n1)C(c1ccccc1)C=C(c1ccccc1)N2` (stereo unspecified), 0.0737.
The molecule `O=C(COC(=O)c1cccs1)NCc1ccccc1` registered a z-score of 0.109.
To `Cc1cccc2cc(CN(CCN3CCOCC3)C(=O)NCc3ccccc3)c(=O)[nH]c12` belongs 0.0153.
The result for `COC(=O)c1ccc(NC(=O)C2CCCN2S(=O)(=O)c2ccc(OC)cc2)cc1` (stereo unspecified) reads -0.672.
